Test results: PubChem BioAssay AID2147 (National Center for Advancing Translational Sciences (NCATS), 2009)
Several values for one entry are separate records, joined by “and”; a condition that tells them apart may be missing. Identical values can stand only once. The whole screen tested about 230,000 compounds, of which about 3,600 (1.6%) were called active. The inconclusive results got no clear call from the source; some entries with a clear call stand among them for comparison. Calls follow the shape of the dose curve; as a rule, active = well fitted inhibition curve with a large enough effect (not every such curve was filed as active); inconclusive = small, poorly fitted or top-dose-only effect, or another doubt; inactive = no such curve, though single readings can be large or run the other way. Potencies of inconclusive entries are doubtful fits and often do not repeat. A structure can be active in one record and inactive in another.

What follows are molecules tested against Lysine-specific demethylase 4E (Homo sapiens) (UniProt B2RXH2) (assay: qHTS Assay for Inhibitors of Human Jumonji Domain Containing 2E (JMJD2E)). Settings: JMJD2E catalytic domain, FDH-coupled NADH fluorescence (FDH is formaldehyde dehydrogenase); series mostly up to 57.1 µM.
Sequence of UniProt B2RXH2 (B2RXH2 whole entry, looked up, the tested form may be a part): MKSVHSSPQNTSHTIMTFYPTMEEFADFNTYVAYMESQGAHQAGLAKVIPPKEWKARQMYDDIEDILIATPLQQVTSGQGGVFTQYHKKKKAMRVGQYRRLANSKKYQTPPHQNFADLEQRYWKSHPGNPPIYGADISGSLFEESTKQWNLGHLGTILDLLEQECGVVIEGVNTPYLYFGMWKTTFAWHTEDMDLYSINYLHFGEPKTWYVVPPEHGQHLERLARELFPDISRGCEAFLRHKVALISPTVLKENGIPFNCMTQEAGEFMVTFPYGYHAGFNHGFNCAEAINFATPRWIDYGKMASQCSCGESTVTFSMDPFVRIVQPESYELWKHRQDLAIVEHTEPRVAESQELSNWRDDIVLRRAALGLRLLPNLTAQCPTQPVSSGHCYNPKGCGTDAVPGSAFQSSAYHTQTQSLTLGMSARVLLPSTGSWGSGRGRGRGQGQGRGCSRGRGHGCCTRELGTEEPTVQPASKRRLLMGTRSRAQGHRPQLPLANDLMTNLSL
Also: nearly all actives have a fitted effect of over 50% in size.
Potency is read from the fitted curve at half-maximal effect; tags tell the direction and shape of the fitted curve.

Q: With `CC(C)(C)c1cc(CCC(=O)NNC(=S)NC(=O)c2ccccc2)cc(C(C)(C)C)c1O` as the molecule, how does the Potency read?
A: inactive

Q: For `Oc1c(Cl)cccc1C=Nc1cc(C(F)(F)F)ccc1N1CCCC1`, which Potency is on record?
A: inconclusive: 31.6 µM [inhibitor, single point]

Q: `CSc1ccc(Cl)c(C(=O)OCC(=O)NCc2ccco2)c1` was tested. Which Potency did it give?
A: inconclusive: 28.2 µM [inhibitor, single point]

Q: How did the Potency turn out when `COc1ccccc1/C=C/C=N/n1c(-c2ccc(Cl)cc2Cl)n[nH]c1=S` was run?
A: inconclusive: 39.8 µM [inhibitor, single point]

Q: How did the Potency turn out when `CC(=O)COc1ccc2c(C)c(-c3ccccc3)c(=O)oc2c1` was run?
A: inconclusive: 39.8 µM [inhibitor, single point]

Q: For `O=C(NCc1ccco1)c1cc2c(s1)CSC2`, which Potency is on record?
A: inconclusive: 35.5 µM [inhibitor, single point]

Q: `CCOC(=O)c1ccc(NC(=S)NNC(=O)COC)cc1` was tested. Which Potency did it give?
A: inactive

Q: Which Potency does the source give for `CN(C)CCCNc1ncnc2sc(-c3ccccc3)cc12` here?
A: inconclusive: 25.1 µM [inhibitor, partial curve]

Q: With `CCCCCNC(=O)c1c[nH]c2ccc(S(=O)(=O)N3CCC4(CC3)OCCO4)cc2c1=O` as the molecule, how does the Potency read?
A: inactive

Q: Which Potency does the source give for `C/C=C/C=C\C(=O)Nc1cccc(C2=NOC3(C2)C[C@H](C(N)=O)N(C(=O)CC#N)C3)c1` (stereo not given in full) here?
A: inconclusive: 39.8 µM [inhibitor, single point]

Q: Which Potency does the source give for `C/C(CC(=O)N(C(C)C)C(C)C)=N\NC(=O)COc1ccc(Cl)cc1Cl` here?
A: inactive

Q: `O=C(CN1C(=O)c2cccc3cccc1c23)NCc1ccc2c(c1)OCO2` was tested. Which Potency did it give?
A: inconclusive: 35.5 µM [inhibitor, single point]

Q: `COc1ccccc1-n1c(-c2cn(C)nc2C)n[nH]c1=S` was tested. Which Potency did it give?
A: inactive

Q: For `COc1ccc(C(=O)CC2OC(=O)c3ccccc32)cc1OC` (stereo not given), which Potency is on record?
A: inconclusive: 39.8 µM [inhibitor, single point]

Q: How did the Potency turn out when `COc1ccc(C/C(=N\O)c2ccc(OC)cc2)cc1` was run?
A: inconclusive: 39.8 µM [inhibitor, single point]

Q: For `CC(C)(C)C(=O)Nc1nnc(-c2ccncc2)o1`, which Potency is on record?
A: inconclusive: 25.1 µM [inhibitor, single point]

Q: `O=c1c2c3c(sc2ncn1/N=C/c1ccccc1)CCCC3` was tested. Which Potency did it give?
A: inactive

Q: For `O=C1CC(SCc2nc3ccccc3[nH]2)C(=O)N1c1cccc(Cl)c1` (stereo not given), which Potency is on record?
A: inconclusive: 39.8 µM [inhibitor, single point]

Q: For `O=C(/C=C/c1ccccc1)C1=C(O)C(=O)N(CCO)C1c1ccccc1[N+](=O)[O-]` (stereo not given), which Potency is on record?
A: inconclusive: 28.2 µM [inhibitor, single point]

Q: Which Potency does the source give for `c1ccc(-c2cn3cccnc3n2)cc1` here?
A: inconclusive: 28.2 µM [inhibitor, partial curve]

Q: Which Potency does the source give for `COc1ccc(N=Cc2c(O)c3ccccc3n2C(C)=O)cc1` here?
A: inconclusive: 35.5 µM [inhibitor, single point]

Q: Which Potency does the source give for `Cc1nnc(NC(=O)CSc2nccn2-c2ccc(F)cc2)s1` here?
A: inactive

Q: `Cc1cc(C2=NNC(=Nc3ccccc3)SC2)c(C)n1C` was tested. Which Potency did it give?
A: inconclusive: 31.6 µM [inhibitor, single point]

Q: `COC(=O)c1sccc1NC(=S)Nc1ccc(F)cc1F` was tested. Which Potency did it give?
A: inactive

Q: With `CCCN(CCC)CCCNC(=O)c1cc2c(=O)[nH]c3ccccc3c2n1C` as the molecule, how does the Potency read?
A: inconclusive: 28.2 µM [inhibitor, single point]

Q: For `Cc1cc(F)ccc1S(=O)(=O)Nc1ccccc1C(=O)Nc1ccccc1N1CCOCC1`, which Potency is on record?
A: inconclusive: 39.8 µM [inhibitor, single point]

Q: `COC(=O)Cn1c(=NC(=O)c2ccc(Cl)s2)sc2cc(C)ccc21` was tested. Which Potency did it give?
A: inactive

Q: For `COC(=O)c1ccc(/C=N/NC(=S)NC(C)C)cc1`, which Potency is on record?
A: inconclusive: 39.8 µM [inhibitor, single point]

Q: `CCOC(=O)c1c(NC(=O)C(=O)N/N=C/c2ccc(O)c(OC)c2)sc2c1CCCCC2` was tested. Which Potency did it give?
A: inconclusive: 35.5 µM [inhibitor, single point]

Q: Which Potency does the source give for `COc1ccc(-n2c(C)c(C(C)=O)c(C(C)=O)c2C)cc1` here?
A: inactive

Q: For `CCCCOc1ccccc1NC(=O)c1scc2c1OCCO2`, which Potency is on record?
A: inconclusive: 39.8 µM [inhibitor, single point]

Q: `OC1CCCN(Cc2c3ccccc3cc3ccccc23)C1` (stereo not given) was tested. Which Potency did it give?
A: inconclusive: 31.6 µM [inhibitor, partial curve]

Q: Which Potency does the source give for `CN(C)S(=O)(=O)c1cccc(NC(=S)Nc2ccc3cn[nH]c3c2)c1` here?
A: inactive

Q: Which Potency does the source give for `Cc1ccc2[nH]c(=O)c(COC(=O)C3CCCCC3)cc2c1` here?
A: inconclusive: 39.8 µM [inhibitor, single point]

Q: `O=C(CCc1nc2ccccc2[nH]c1=O)OCC(=O)N1CCc2ccccc21` was tested. Which Potency did it give?
A: inconclusive: 39.8 µM [inhibitor, single point]

Q: For `O=S(=O)(Nc1nc2ccccc2s1)c1ccc(Cl)s1`, which Potency is on record?
A: inactive

Q: `CCCCCCc1cc2cc(C(=O)NC)c(=N)oc2cc1O` was tested. Which Potency did it give?
A: inconclusive: 12.6 µM [inhibitor, partial curve]

Q: How did the Potency turn out when `CCOC(=O)c1ccc(N2C(=O)CC(N3CCN(Cc4ccccc4)CC3)C2=O)cc1` (stereo not given) was run?
A: inactive

Q: With `COc1cccc(N2C(=O)C(c3ccccc3)=C(c3nc4ccccc4s3)C2NC(C)=O)c1` (stereo not given) as the molecule, how does the Potency read?
A: inactive

Q: `CN1/C(=C\C(=O)c2cccnc2)C(C)(C)c2ccccc21` was tested. Which Potency did it give?
A: inactive

Q: With `CCCCC(=NCCc1c(C)[nH]c2ccccc12)C1=C(O)CC(c2ccccc2)CC1=O` (stereo not given) as the molecule, how does the Potency read?
A: inactive

Q: How did the Potency turn out when `CCc1cc2c(C)cc(=O)oc2cc1Oc1ncccc1[N+](=O)[O-]` was run?
A: inactive

Q: Which Potency does the source give for `FC(F)C(F)(F)C(F)(F)C(F)(F)c1cc(-c2ccccc2)n[nH]1` here?
A: inactive

Q: With `CC(=O)c1ccc(N2CCN(C(=O)c3cc4c(s3)CCCC4)CC2)cc1` as the molecule, how does the Potency read?
A: inconclusive: 35.5 µM [inhibitor, single point]

Q: For `Nc1[nH]nc2nc3ccccc3cc12`, which Potency is on record?
A: inactive

Q: Which Potency does the source give for `CCC(=O)c1ccc(OCC(=O)O)cc1` here?
A: inactive

Q: `COC(=O)c1ccccc1NC(=S)NC(=O)c1ccccc1F` was tested. Which Potency did it give?
A: inconclusive: 39.8 µM [inhibitor, single point]

Q: With `Cc1cc(C)c2sc(N(CCCN(C)C)C(=O)COc3ccc(Cl)cc3)nc2c1` as the molecule, how does the Potency read?
A: inactive

Q: For `COCCNc1nc2c(S(=O)(=O)c3cc(C)ccc3C)nnn2c2ccccc12`, which Potency is on record?
A: inconclusive: 8.91 µM [inhibitor, full curve]

Q: With `Nc1ccc(C(=O)O)c(O)c1` as the molecule, how does the Potency read?
A: inactive and active: 7.08 µM

Q: For `CCC(C)C1=CC(=Nc2c(C)n(C)n(-c3ccccc3)c2=O)C=C(C(C)CC)C1=O` (stereo not given), which Potency is on record?
A: inactive

Q: With `Cc1nc(CC(=O)N/N=C/c2ccc(OCC(=O)O)cc2)cs1` as the molecule, how does the Potency read?
A: inactive

Q: Which Potency does the source give for `Cc1ccc(/C=C/c2nc3ccccc3[nH]2)o1` here?
A: inconclusive: 31.6 µM [inhibitor, partial curve]

Q: With `NC(=O)COC(=O)[C@@H]1CC(O)CN1S(=O)(=O)c1ccc2c(c1)OCCO2` (stereo not given in full) as the molecule, how does the Potency read?
A: inactive

Q: For `COC(=O)c1ccc(CC(=O)c2c(C)cc(O)cc2O)o1`, which Potency is on record?
A: active: 17.8 µM

Q: With `Cc1ccc(NC(=O)CN2C(=O)S/C(=C\c3ccc(-c4cccc(C(=O)O)c4C)o3)C2=O)cc1` as the molecule, how does the Potency read?
A: inconclusive: 35.5 µM [inhibitor, single point]

Q: With `O=C(N/N=C/c1sc(=O)n(-c2ccccc2)c1Cl)c1ccccc1` as the molecule, how does the Potency read?
A: inconclusive: 39.8 µM [inhibitor, single point]

Q: Which Potency does the source give for `CC1CCN(C2=C(NS(=O)(=O)c3ccccc3)C(=O)c3ccccc3C2=O)CC1` here?
A: inconclusive: 22.4 µM [inhibitor, partial curve, poor fit]

Q: For `Cc1ccc2cc(CN(Cc3ccco3)S(=O)(=O)c3c(C)ccc4nsnc34)c(=O)[nH]c2c1`, which Potency is on record?
A: inconclusive: 28.2 µM [inhibitor, single point]

Q: `Cc1ccc(Cn2c(=S)[nH]c3ccc(N4CCOCC4)cc3c2=O)o1` was tested. Which Potency did it give?
A: inconclusive: 20 µM [inhibitor, partial curve]

Q: Which Potency does the source give for `C/C(=N\NC(=O)CSCc1ccc([N+](=O)[O-])cc1)c1ccccc1O` here?
A: active: 25.1 µM

Q: With `Cc1ccc(/C=C2\Sc3ccccc3C2=O)s1` as the molecule, how does the Potency read?
A: inactive

Q: `Cc1ccc(NCCC(=O)c2ccc(Cl)cc2)cc1C` was tested. Which Potency did it give?
A: inactive

Q: Which Potency does the source give for `CCn1cc(C(=O)O)c(=O)c2cnc(N3CCN(C(=O)Nc4cccc5ccccc45)CC3)nc21` here?
A: inconclusive: 7.94 µM [inhibitor, partial curve]

Q: For `CN(C)S(=O)(=O)c1ccc2nc(NC(=O)c3cccs3)sc2c1`, which Potency is on record?
A: inconclusive: 25.1 µM [inhibitor, single point]

Q: `Cc1cc(=O)c2c(O)cc(O)c(C)c2o1` was tested. Which Potency did it give?
A: inactive

Q: With `FC(F)(F)c1cc(-c2ccccc2)nc(NCc2cccnc2)n1` as the molecule, how does the Potency read?
A: inconclusive: 35.5 µM [inhibitor, single point]

Q: For `C=CCSc1nc2c(c(=O)[nH]c(=O)n2C)n1C/C=C(/C)Cl`, which Potency is on record?
A: inactive

Q: With `O=C(Nc1nc2ccccc2n1CCN1CCOCC1)c1ccc(Cl)cc1` as the molecule, how does the Potency read?
A: inconclusive: 35.5 µM [inhibitor, single point]

Q: For `COc1cc(/C=C/C(=O)Nc2nc3ccc(S(=O)(=O)NC(C)C)cc3s2)cc(OC)c1OC`, which Potency is on record?
A: inconclusive: 3.16 µM [inhibitor, full curve]

Q: `Nc1c(C(=O)OCC(=O)Nc2ccc(Cl)cc2[N+](=O)[O-])[nH]c(=O)[nH]c1=O` was tested. Which Potency did it give?
A: inconclusive: 39.8 µM [inhibitor, single point]

Q: Which Potency does the source give for `COCCn1c(SCC(=O)c2ccc(Cl)cc2)nnc1C(C)C` here?
A: inconclusive: 39.8 µM [inhibitor, single point]

Q: How did the Potency turn out when `COc1ccc(C(=O)N/N=c2\oc3ccccc3cc2C(=O)NCc2ccccc2)cc1` was run?
A: inactive

Q: Which Potency does the source give for `O=C(O)c1cc(N/N=C2/CC(c3ccccc3)Oc3ccccc32)ccc1Cl` (stereo not given) here?
A: inconclusive: 31.6 µM [inhibitor, single point]

Q: How did the Potency turn out when `NC(=O)N/N=C/c1cn(-c2ccccc2)nc1-c1cccnc1` was run?
A: inconclusive: 39.8 µM [inhibitor, single point]
